{"source": "ChEMBL document CHEMBL4888484", "about": "“Replenishing the malaria drug discovery pipeline: Screening and hit evaluation of the MMV Hit Generation Library 1 (HGL1) against asexual blood stage Plasmodium falciparum ,using a nano luciferase reporter read-out” (2022)", "note": "The campaign covered roughly 150,000 compounds. About 540 (0.36%) showed an effect of 50% or more. This is one part of the list."}
{"system": "Plasmodium falciparum", "assay": "Primary screen in NF54 nanoGlo assay, in single point, at 2uM, 72h; a lower Z score goes with more inhibition", "format": "functional, Erythrocyte", "details": "timepoint 72 hour", "units": {"% Inhibition": "%"}}
{"compound": "CC(C)[C@H]1c2ccccc2CCN1C(=O)c1cnc[nH]1", "% Inhibition": -3, "Z score": 0.26}
{"compound": "Cc1nc2ccc(NC(=O)c3ccsc3)cc2s1", "% Inhibition": -10, "Z score": 0.98}
{"compound": "CN(C)c1cccc(C(=O)N2CCC3(CCC(=O)N(C4CCCC4)C3)CC2)c1", "% Inhibition": -10, "Z score": 0.91}
{"compound": "CCO[C@@H](C)c1nccn1Cc1nnc2n1CCCCC2", "% Inhibition": -10, "Z score": 1.7}
{"compound": "O=C(c1nnn2c1CO[C@H](c1ccccc1)C2)N1CCCC1", "% Inhibition": -16, "Z score": 1.84}
{"compound": "COc1ccc(-c2noc(N3CCN(c4cccc(C(F)(F)F)c4)CC3)n2)cc1OC", "% Inhibition": 1, "Z score": -0.22}
{"compound": "C[C@@H](CC(=O)N1CCCCCC1)Nc1cccc(-c2ncco2)c1", "% Inhibition": -22, "Z score": 3.18}
{"compound": "COc1ccccc1[C@@H](O)CNc1cncc(Br)c1", "% Inhibition": -10, "Z score": 1.1}
{"compound": "CC(C)C[C@@H]1NC2(CCN(S(=O)(=O)c3cccc(Cl)c3)CC2)N(Cc2cccc(C(F)(F)F)c2)C1=O", "% Inhibition": -10, "Z score": 1.72}
{"compound": "O=C(Nc1cccc2cccnc12)c1sc2ccccc2c1Cl", "% Inhibition": 0, "Z score": 0.05}
{"compound": "Cc1nc2c(s1)[C@@H](N(C)CC(=O)Nc1nncs1)CCC2", "% Inhibition": 5, "Z score": -0.67}
{"compound": "Cc1c(-c2cc(C(=O)N3CC[C@H]3c3ccc(F)cc3)n[nH]2)cnn1C", "% Inhibition": -4, "Z score": 0.53}
{"compound": "O=C(O)Cc1cccc(NC(=O)CC2(c3ccccc3)CC2)c1", "% Inhibition": -2, "Z score": 0.16}
{"compound": "COc1cccc(CNc2nnc([C@@H]3CCCO3)o2)n1", "% Inhibition": -8, "Z score": 1.04}
{"compound": "Cc1nc([C@@H]2CCCN2c2ccnc(Cc3ccccc3)n2)[nH]c1C", "% Inhibition": -5, "Z score": 0.8}
{"compound": "Cc1ccc(N2CCCC2)c(C(=O)N2CCOC[C@@H](C)C2)c1", "% Inhibition": -3, "Z score": 0.5}
{"compound": "CC(C)NC(=O)CNc1ccncc1Br", "% Inhibition": -7, "Z score": 0.96}
{"compound": "Cc1occc1-c1nnc(NCc2cccn2C)o1", "% Inhibition": -2, "Z score": 0.22}
{"compound": "Cc1ccc(-c2nn(CC(=O)N(C)Cn3ccc(C)n3)c(-c3ccc(C)cc3)c2C)cc1", "% Inhibition": 28, "Z score": -3.16}
{"compound": "N#Cc1c(N)c(C(=O)NCc2ccccc2)c2n1CCC2", "% Inhibition": -4, "Z score": 0.69}
{"compound": "COCCCN(Cc1csc(COc2cccc(C)c2)n1)C(=O)C1CCCC1", "% Inhibition": -9, "Z score": 0.96}
{"compound": "O=C(c1cnco1)N1CCn2nc([C@H](O)c3ccccc3)cc2C1", "% Inhibition": 1, "Z score": -0.24}
{"compound": "Cc1ccc(NC2(c3nnnn3C(c3ccccc3)c3ccccc3)CCCCC2)cc1", "% Inhibition": 25, "Z score": -3.89}
{"compound": "CCCC[C@H](C)C(=O)NCc1cnc(COC)nc1N", "% Inhibition": -4, "Z score": 0.5}
{"compound": "Cc1ccc(CN(CCN(C)C)C(=O)c2cnon2)s1", "% Inhibition": -6, "Z score": 1.17}
{"compound": "Cc1ccc(C(=O)C2CN(c3ccccc3)CC2C(=O)c2ccc(C)cc2)cc1", "note": "(stereo not drawn)", "% Inhibition": 1, "Z score": -0.11}
{"compound": "Cc1cccc(N2CCN(C(=O)CN(C)c3nnc(N4CCCCC4=O)s3)CC2)c1C", "% Inhibition": -12, "Z score": 2.21}
{"compound": "Cc1cccc(-c2ccc3nc(-c4ccc(Cl)cc4)c(CN4CCN(C(=O)c5cccs5)CC4)n3c2)c1", "% Inhibition": -14, "Z score": 2}
{"compound": "C[C@@H](c1cncs1)N(C)C(=O)c1cn2c(n1)CNCC2", "% Inhibition": -6, "Z score": 0.99}
{"compound": "Nc1cc(S(=O)(=O)N2CCCCC2)ccc1N1CCCCCC1", "% Inhibition": -15, "Z score": 1.7}
{"compound": "Cc1cccc(OC[C@]2(CNC(=O)c3cc(C)nn3C)C[C@@H](O)[C@@H](O)C2)n1", "% Inhibition": 28, "Z score": -3.24}
{"compound": "CC(NC(=O)C1CC1C)c1ccccn1", "note": "(stereo not drawn)", "% Inhibition": 0, "Z score": 0.08}
{"compound": "Cc1cc(N(C)C)nc(NCCNC(=O)Nc2cccc(C)c2C)n1", "% Inhibition": -2, "Z score": 0.29}
{"compound": "CN(CC(=O)NC(C)(C)C)C[C@H](O)c1ccc(Br)cc1", "% Inhibition": 3, "Z score": -0.24}
{"compound": "Cc1ncc2c(n1)CC[C@H](NCc1csc(C(F)(F)F)n1)C2", "% Inhibition": 1, "Z score": -0.1}
{"compound": "O=C(Cn1ccc2ccc(N3CCOCC3)nc21)NCc1ccccc1Br", "% Inhibition": -2, "Z score": 0.27}
{"compound": "CCC(C)C(C)NC(=O)C1COCCN1", "note": "(stereo not drawn)", "% Inhibition": -7, "Z score": 1}
{"compound": "CC1CCCC(OCc2cccc(NC(=O)C(=O)Nc3cnn(C)c3)c2)C1", "note": "(stereo not drawn)", "% Inhibition": -2, "Z score": 0.25}
{"compound": "O=C1CC[C@H](NCCC2=CCCCC2)CCN1CC1CC1", "% Inhibition": 7, "Z score": -1.09}
{"compound": "CCN(C)c1nc(N2CCOCC2)nc2c1CNCC2", "% Inhibition": -5, "Z score": 0.5}
{"compound": "Cc1c(NC2CCN(C(C)C)CC2)cccc1N1C(=O)CCC1=O", "% Inhibition": -6, "Z score": 0.77}
{"compound": "CCOC(=O)c1nn(-c2ccccc2)cc1CN1CCN(C(=O)c2ccccc2)CC1", "% Inhibition": -10, "Z score": 1.25}
{"compound": "O=C(CCc1ccc(S(=O)(=O)N2CCCC2)cc1)Nc1ccc(F)c(F)c1F", "% Inhibition": -1, "Z score": 0.15}
{"compound": "O=C(Nc1c(F)cccc1F)N1CCC(Cn2c(COc3ccccc3)nc3ccccc32)CC1", "% Inhibition": 17, "Z score": -1.95}
{"compound": "O=C(NCc1ccc(F)cc1)Nc1ccc2nncn2c1", "% Inhibition": -9, "Z score": 1.78}
{"compound": "CCc1ccc(CN(CC)Cc2noc(C)n2)nc1", "% Inhibition": 5, "Z score": -0.86}
{"compound": "c1ccc(-c2cc(CC3(NCc4ccco4)COC3)no2)nc1", "% Inhibition": 0, "Z score": -0.02}
{"compound": "COc1cc(C(=O)N2C[C@@H]3CC[C@H]2CN(Cc2[nH]cnc2C)C3)ccn1", "% Inhibition": -14, "Z score": 2.26}
{"compound": "COc1ccc(-c2nn(-c3ccccc3C)c3c2C(C)=CC(=O)[C@H]3CC(=O)NC2CCCC2)cc1", "% Inhibition": 1, "Z score": -0.15}
{"compound": "CN(C(=O)Cn1ncn(C)c1=O)c1ccccc1-c1ccccc1", "% Inhibition": -7, "Z score": 1.11}
{"compound": "c1ccc2sc([C@@H]3CCCN3c3nccn4cnnc34)nc2c1", "% Inhibition": -13, "Z score": 1.72}
{"compound": "O=C(NCc1ccc(F)cc1)c1cc2n(n1)CCN(CC1CC1)C2=O", "% Inhibition": -1, "Z score": 0.07}
{"compound": "O=C(c1cccc(F)c1)N1CCC[C@H](OCc2cccc(F)c2F)C1", "% Inhibition": 3, "Z score": -0.52}
{"compound": "O=C(NC[C@H]1O[C@@H]2C[C@@H](CC(=O)N3CCC(F)(F)C3)O[C@@H]2[C@@H]1O)Nc1cccnc1", "% Inhibition": -9, "Z score": 1.39}
{"compound": "OCCN[C@@H](CC(F)(F)F)c1ccc(Cl)cc1", "% Inhibition": -9, "Z score": 1.16}
{"compound": "Cc1ccc(NC(=O)c2cnn(CC3CC3)c2)cc1N1C(=O)CNC1=O", "% Inhibition": -1, "Z score": 0.23}
{"compound": "CC(C)(CNC(=O)C1(C#N)CCCC1)c1cccs1", "% Inhibition": -2, "Z score": 0.43}
{"compound": "CCC(=O)N1CCc2cc(C)c(S(=O)(=O)NCc3ccco3)cc21", "% Inhibition": -8, "Z score": 1.64}
{"compound": "CCc1noc(C)c1NC(=O)N1Cc2cccnc2N2CCC[C@@H]2C1", "% Inhibition": -16, "Z score": 1.64}
{"compound": "COC(=O)C[C@H](c1cc(OC)c2c(c1)OCCO2)c1c(C)[nH][nH]c1=O", "% Inhibition": -2, "Z score": 0.22}
{"compound": "Cc1cc(NS(=O)(=O)c2cc(F)ccc2OC(C)C)cc(C)n1", "% Inhibition": 0, "Z score": -0.01}
{"compound": "COC(=O)[C@H](C)N(Cc1ccccc1)C(=O)c1noc2c1CCCC2", "% Inhibition": -5, "Z score": 0.86}
{"compound": "Nc1nc2ccc(N3CCOCC3)cc2s1", "% Inhibition": -13, "Z score": 1.6}
{"compound": "O=S(=O)(N[C@@H]1C[C@H]2CC[C@@H]1C2)c1cccs1", "% Inhibition": -10, "Z score": 1.52}
{"compound": "COc1cccc(N2C[C@H](Cc3ccccc3)N(C(=O)CCC(N)=O)CC2=O)c1", "% Inhibition": -1, "Z score": 0.14}
{"compound": "Cn1nccc1CCC(=O)N[C@H]1CCOC[C@@H]1Oc1ccccn1", "% Inhibition": -18, "Z score": 1.8}
{"compound": "COc1ccc(OC)c([C@@H]2CCCN2CN2C(=O)NC3(CCCCCCC3)C2=O)c1", "% Inhibition": -15, "Z score": 2.76}
{"compound": "NC(=O)c1c[nH]c(C(=O)NCc2[nH]nc3c2CCCC3)c1", "% Inhibition": -14, "Z score": 2.12}
{"compound": "O=C(CCc1nnc2c3cc(-c4ccc(Cl)cc4)nn3ccn12)NCc1ccccc1", "% Inhibition": -9, "Z score": 1.3}
{"compound": "COc1ccc(-n2cc3c(c2-c2ccccc2)c(=O)n(-c2ccccc2)n3C)cc1", "% Inhibition": -10, "Z score": 1.33}
{"compound": "C[C@H]1CN(C(=O)C2(C#N)CCCC2)c2ccccc2CN1C(=O)OC(C)(C)C", "% Inhibition": 0, "Z score": -0.05}
{"compound": "Cc1ccc(Cl)cc1NC(=O)C1CCCN(S(=O)(=O)c2ccc3c(c2)NC(=O)C(C)O3)C1", "note": "(stereo not drawn)", "% Inhibition": -8, "Z score": 1.21}
{"compound": "Cc1nc(C2CCCN2C2CCN(CC(F)(F)F)C2=O)no1", "note": "(stereo not drawn)", "% Inhibition": -15, "Z score": 1.65}
{"compound": "CC(=O)N1Cc2ccccc2C[C@H]1C(=O)N(C)Cc1cccc(=O)[nH]1", "% Inhibition": 6, "Z score": -0.83}
{"compound": "CC(=O)Nc1ccc(NC(=O)CCc2ccc3ccn(C)c3c2)cc1", "% Inhibition": -4, "Z score": 0.5}
{"compound": "COc1ccc(C2CCN(C(=O)[C@H](N)c3ccccc3C)CC2)nc1", "% Inhibition": -5, "Z score": 0.7}
{"compound": "Cc1n[nH]c([C@H]2CCCN(Cc3nonc3C)C2)n1", "% Inhibition": 1, "Z score": -0.08}
{"compound": "Cc1cncc(-c2ccc(N3CCCC3=O)c(C)c2)c1", "% Inhibition": -11, "Z score": 2.14}
{"compound": "CCCc1occc1C(=O)NS(=O)(=O)c1c(C)nn(C)c1OC", "% Inhibition": 7, "Z score": -0.59}
{"compound": "Cc1ccc(F)cc1S(=O)(=O)N(CCCN1CCOCC1)[C@H]1CCCNC1", "% Inhibition": 4, "Z score": -0.47}
{"compound": "Cc1ccc2c(c1)[C@@H](NC(=O)C(C)(C)c1c(C)noc1C)CCC2", "% Inhibition": -7, "Z score": 1.3}
{"compound": "Cc1ccnc(NCCc2csc(N3CCCC3)n2)n1", "% Inhibition": 15, "Z score": -1.7}
{"compound": "COC[C@@H]1CN(Cc2ccc(F)c(OC)c2)C[C@H]1c1nc(C)no1", "% Inhibition": -5, "Z score": 0.81}
{"compound": "COc1cc2c(cc1OC)C(NC(=O)[C@H](C)n1cnnn1)CC2", "note": "(stereo partly drawn)", "% Inhibition": -2, "Z score": 0.25}
